Where a chain is given by its changes, count along the chain named. Some of the results follow.

Drawing on paper PMC9911399, “Two distinct binding modes provide the RNA-binding protein RbFox with extraordinary sequence specificity”, this text covers binding signal for 20 molecules.

The labels stand for the following.
T1: RBFOX1 RRM RbFoxmut (Fox-RRM*) (Homo sapiens, UniProt Q9NWB1 109-208, R118D;E147R;N151S;E152T)
T1 sequence: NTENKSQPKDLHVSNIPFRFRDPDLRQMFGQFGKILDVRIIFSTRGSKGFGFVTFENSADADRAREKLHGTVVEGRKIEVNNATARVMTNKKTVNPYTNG

B1: AAUUGAG (DNA:RNA)
RNA: GGGAGACCGGAAUUCAGAUUGUCCAAUUGAGUUAAAUCCCGUCGUAGCCACCA
DNA 1: CAATCTGAATTCCGGTCTCCC
DNA 2: TGGTGGCTACGACGGGATT
B2: UCUAGCC (DNA:RNA)
RNA: B1 RNA with A25U, A26C, U28A, A30C, G31C
DNA 1: CAATCTGAATTCCGGTCTCCC
DNA 2: TGGTGGCTACGACGGGATT
B3: GGUGGUC (DNA:RNA)
RNA: B1 RNA with A25G, A26G, U28G, A30U, G31C
DNA 1: CAATCTGAATTCCGGTCTCCC
DNA 2: TGGTGGCTACGACGGGATT
B4: CACUACG (DNA:RNA)
RNA: B1 RNA with A25C, U27C, G29A, A30C
DNA 1: CAATCTGAATTCCGGTCTCCC
DNA 2: TGGTGGCTACGACGGGATT
B5: UCCUAUA (DNA:RNA)
RNA: B1 RNA with A25U, A26C, U27C, G29A, A30U, G31A
DNA 1: CAATCTGAATTCCGGTCTCCC
DNA 2: TGGTGGCTACGACGGGATT
B6: GAACUUA (DNA:RNA)
RNA: B1 RNA with A25G, U27A, U28C, G29U, A30U, G31A
DNA 1: CAATCTGAATTCCGGTCTCCC
DNA 2: TGGTGGCTACGACGGGATT
B7: CGGGCGA (DNA:RNA)
RNA: GGGAGACCGGAAUUCAGAUUGUCCCGGGCGAUUAAAUCCCGUCGUAGCCACCA
DNA 1: CAATCTGAATTCCGGTCTCCC
DNA 2: TGGTGGCTACGACGGGATT
B8: GACGAUG (DNA:RNA)
RNA: B1 RNA with A25G, U27C, U28G, G29A, A30U
DNA 1: CAATCTGAATTCCGGTCTCCC
DNA 2: TGGTGGCTACGACGGGATT
B9: AUCUCGG (DNA:RNA)
RNA: B1 RNA with A26U, U27C, G29C, A30G
DNA 1: CAATCTGAATTCCGGTCTCCC
DNA 2: TGGTGGCTACGACGGGATT
B10: GUGUACG (DNA:RNA)
RNA: B1 RNA with A25G, A26U, U27G, G29A, A30C
DNA 1: CAATCTGAATTCCGGTCTCCC
DNA 2: TGGTGGCTACGACGGGATT
B11: GGAAAUU (DNA:RNA)
RNA: B7 RNA with C25G, G27A, G28A, C29A, G30U, A31U
DNA 1: CAATCTGAATTCCGGTCTCCC
DNA 2: TGGTGGCTACGACGGGATT
B12: CAUUCUG (DNA:RNA)
RNA: B1 RNA with A25C, G29C, A30U
DNA 1: CAATCTGAATTCCGGTCTCCC
DNA 2: TGGTGGCTACGACGGGATT
B13: AUAAGUC (DNA:RNA)
RNA: B1 RNA with A26U, U27A, U28A, A30U, G31C
DNA 1: CAATCTGAATTCCGGTCTCCC
DNA 2: TGGTGGCTACGACGGGATT
B14: CAUCUAA (DNA:RNA)
RNA: B1 RNA with A25C, U28C, G29U, G31A
DNA 1: CAATCTGAATTCCGGTCTCCC
DNA 2: TGGTGGCTACGACGGGATT
B15: GGAGGAG (DNA:RNA)
RNA: B1 RNA with A25G, A26G, U27A, U28G
DNA 1: CAATCTGAATTCCGGTCTCCC
DNA 2: TGGTGGCTACGACGGGATT
B16: AAGCGCU (DNA:RNA)
RNA: B1 RNA with U27G, U28C, A30C, G31U
DNA 1: CAATCTGAATTCCGGTCTCCC
DNA 2: TGGTGGCTACGACGGGATT
B17: CUAUGUG (DNA:RNA)
RNA: B1 RNA with A25C, A26U, U27A, A30U
DNA 1: CAATCTGAATTCCGGTCTCCC
DNA 2: TGGTGGCTACGACGGGATT
B18: AUGGGGC (DNA:RNA)
RNA: B7 RNA with C25A, G26U, C29G, A31C
DNA 1: CAATCTGAATTCCGGTCTCCC
DNA 2: TGGTGGCTACGACGGGATT
B19: AGCUAAU (DNA:RNA)
RNA: B1 RNA with A26G, U27C, G29A, G31U
DNA 1: CAATCTGAATTCCGGTCTCCC
DNA 2: TGGTGGCTACGACGGGATT
B20: UGUAUCC (DNA:RNA)
RNA: B1 RNA with A25U, A26G, U28A, G29U, A30C, G31C
DNA 1: CAATCTGAATTCCGGTCTCCC
DNA 2: TGGTGGCTACGACGGGATT

The target of the assay is T1, RBFOX1 RRM RbFoxmut (Fox-RRM*). Briefly: EMSA; HiTS-Eq, 1 nM pool, 10 min; buffer printed only for the single-RNA assays: 10 mM Tris pH 7.5, 150 mM NaCl, 3.4 mM EDTA, 0.001% NP-40, 30 C. The settings on record: tags: His6 N-terminal (pET28a); label: 5' 32P. The method, boiled down:
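Relative association constants, normalised to the cognate motif, were derived by comparing read counts of each RNA species with those of the control reaction. The RNA sequenced was the free fraction, separated by 8% native PAGE after a 10 min equilibration in 50 µL of 1 nM 5′-radiolabelled RNA (7 randomized nucleotides) with increasing concentrations of purified wild-type or mutant RbFox RRM.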
In general terms: Mobility shift assays separate free from complexed probe on a gel.
B1: the binding signal is 0.102 KA relative to UGCAUGU.

For the molecule B2, the binding signal is 0.104 KA relative to UGCAUGU.

Take B3: the binding signal was 0.18 KA relative to UGCAUGU.

As for B4, the binding signal is 0.118 KA relative to UGCAUGU.

As to B5, the binding signal was 0.113 KA relative to UGCAUGU.

With B6, the binding signal is 0.0792 KA relative to UGCAUGU.

Consider B7, for which the binding signal is 0.0794 KA relative to UGCAUGU.

With B8, the binding signal was 0.0965 KA relative to UGCAUGU.

Consider B9, for which the binding signal was 0.0955 KA relative to UGCAUGU.

For the molecule B10, the binding signal was 0.441 KA relative to UGCAUGU.

Consider B11, for which the binding signal was 0.0758 KA relative to UGCAUGU.

As to B12, the binding signal was 0.0859 KA relative to UGCAUGU.

As for B13, the binding signal was 0.088 KA relative to UGCAUGU.

With B14, the binding signal was 0.0986 KA relative to UGCAUGU.

Turning to B15, the binding signal was 0.0853 KA relative to UGCAUGU.

For B16, the binding signal was 0.0814 KA relative to UGCAUGU.

Take B17: the binding signal was 0.134 KA relative to UGCAUGU.

On to B18, for which the binding signal is 0.0737 KA relative to UGCAUGU.

B19: the binding signal was 0.0781 KA relative to UGCAUGU.

As for B20, the binding signal is 0.15 KA relative to UGCAUGU.
